Laboratory results as given in PubChem BioAssay AID1030 (National Center for Advancing Translational Sciences (NCATS), 2008).
In all, about 220,000 compounds went through this assay and about 16,000 (7.3%) were called active. The inconclusive results got no clear call from the source; some entries with a clear call stand among them for comparison. The call rests on the fitted dose curve; in most records, active means well fitted inhibition curve with a large enough effect (not every such curve was filed as active); inconclusive means small, poorly fitted or top-dose-only effect, or another doubt; inactive means no such curve, though single readings can be large or run the other way. Potencies of inconclusive entries are left out as doubtful fits.

target: Aldehyde dehydrogenase 1A1 (Homo sapiens) (UniProt P00352); experiment: qHTS Assay for Inhibitors of Aldehyde Dehydrogenase 1 (ALDH1A1); conditions: Purified ALDH1A1, NADH fluorescence, propionaldehyde substrate; series mostly up to 75.3 µM; activity, negative = inhibition: at the top concentration;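 on activity, negative = inhibition: plate controls were no enzyme wells and a reference inhibitor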
Potency means the concentration at half of the fitted maximal effect; tags describe the fitted curve by direction and shape.

Sequence of UniProt P00352 (P00352 whole entry, looked up): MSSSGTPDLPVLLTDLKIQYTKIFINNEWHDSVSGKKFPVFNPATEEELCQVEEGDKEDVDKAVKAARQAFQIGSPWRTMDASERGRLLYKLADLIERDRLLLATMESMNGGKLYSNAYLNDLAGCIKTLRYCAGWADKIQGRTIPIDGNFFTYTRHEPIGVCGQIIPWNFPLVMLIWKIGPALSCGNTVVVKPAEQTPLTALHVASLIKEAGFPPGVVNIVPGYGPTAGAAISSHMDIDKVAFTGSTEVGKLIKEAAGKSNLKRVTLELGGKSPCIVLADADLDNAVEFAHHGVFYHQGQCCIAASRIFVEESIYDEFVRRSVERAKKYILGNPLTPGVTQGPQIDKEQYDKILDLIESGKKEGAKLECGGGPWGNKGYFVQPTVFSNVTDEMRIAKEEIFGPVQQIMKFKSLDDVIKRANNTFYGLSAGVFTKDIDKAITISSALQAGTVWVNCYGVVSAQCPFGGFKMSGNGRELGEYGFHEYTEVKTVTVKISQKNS

**Q.** For `CCOC(=O)c1c2ccc(OCC(=O)N/N=C/c3ccccc3C(F)(F)F)cc2n2ccccc12`, which Potency is on record?
**A.** inconclusive [inhibitor, single point]

**Q.** How did the Potency turn out when `CCC(=O)Nc1c(S(=O)(=O)c2ccccc2)c2nc3ccccc3nc2n1Cc1ccccc1` was run?
**A.** inconclusive [inhibitor, partial curve]

**Q.** How did the Potency turn out when `C=CCSc1nc(-c2ccc(OC)cc2)c(C#N)c(=O)n1CC=C` was run?
**A.** inconclusive [inhibitor, single point]

**Q.** `COC(=O)C1=NNC2C(=O)N(C3CCCCC3)C(=O)C12` (stereo not drawn) was tested. Which Potency did it give?
**A.** inconclusive [inhibitor, single point]

**Q.** Which Potency does the source give for `Cc1ccc2c(c1)[nH]c1c(=O)n(Cc3ccccn3)cnc12` here?
**A.** inconclusive [inhibitor, single point]

**Q.** For `O=C(O)c1csc(-n2nc(-c3ccccc3)cc2C(F)(F)F)n1`, which Potency is on record?
**A.** inconclusive [inhibitor, single point]

**Q.** For `O=C(COC(=O)CCC(=O)c1cccs1)NC1CC1`, which “activity, negative = inhibition” value is on record?
**A.** inactive: 7.41%

**Q.** With `COc1ccc(C(=O)COc2ccc3ccc(=O)oc3c2)cc1` as the compound, how does the Potency read?
**A.** inconclusive [inhibitor, single point]

**Q.** With `O=S(=O)(c1ccc(Br)cc1)c1nc(-c2ccco2)oc1NCC1CCCO1` (stereo not drawn) as the compound, how does the Potency read?
**A.** active: 14.1 µM

**Q.** Which “activity, negative = inhibition” value does the source give for `CC(=O)O[C@H]1CC[C@@]2(C)C(CCC3C2CC[C@]2(C)OC(=O)CCC32)C1` (stereo partly drawn) here?
**A.** inactive: 3.72%

**Q.** For `C#CCN1C(=O)C(O)(CC(=O)/C=C/C=C/c2ccccc2)c2ccccc21` (stereo not drawn), which Potency is on record?
**A.** active: 6.31 µM

**Q.** `COc1cc(/C=C(\C#N)C(=O)NCC2CCCO2)ccc1OCC(=O)O` (stereo not drawn) was tested. Which Potency did it give?
**A.** inconclusive [inhibitor, single point]

**Q.** How did the Potency turn out when `c1ccc(CNc2ncncc2-c2ccoc2)cc1` was run?
**A.** inconclusive [inhibitor, single point]

**Q.** With `CCOC(=O)c1oc2ccc(/C=N/O)c(Cl)c2c1C` as the compound, how does the “activity, negative = inhibition” value read?
**A.** inactive: 2.06%

**Q.** For `Cc1ccc(Nc2nc(OC(C(F)(F)F)C(F)(F)F)nc(N3CCOCC3)n2)cc1`, which “activity, negative = inhibition” value is on record?
**A.** inactive: 11.5%

**Q.** For `O=C(CN1CCOCC1)N(c1ccccc1)c1ccc2ccccc2c1`, which Potency is on record?
**A.** inconclusive [inhibitor, single point]

**Q.** Which Potency does the source give for `CC(C)NC(=O)/C(C#N)=C\c1ccc(N(C)C)c(Br)c1` here?
**A.** inconclusive [inhibitor, partial curve]

**Q.** With `O=c1c2ccccc2nc(CSc2nnnn2-c2ccccc2)n1-c1ccccc1` as the compound, how does the “activity, negative = inhibition” value read?
**A.** inactive: -17.7%

**Q.** `COc1ccc(Cl)cc1-n1c(C)ccc1C` was tested. Which “activity, negative = inhibition” value did it give?
**A.** inactive: -1.72%

**Q.** How did the Potency turn out when `CCc1nnc(NC(=O)CSc2nnc(Cc3cc(=O)[nH]c(=O)[nH]3)n2-c2ccc(OC)cc2)s1` was run?
**A.** inconclusive [inhibitor, single point]

**Q.** Which Potency does the source give for `COc1cc(O)oc1C=Nc1ccccc1` here?
**A.** active: 20 µM

**Q.** Which Potency does the source give for `O=C(CSc1nc2ccccc2c(=O)n1-c1ccccc1)N1CCN(CCO)CC1` here?
**A.** inconclusive [inhibitor, single point]

**Q.** Which Potency does the source give for `Fc1ccccc1CSc1ncnc2sc3c(c12)CCCC3` here?
**A.** inconclusive [inhibitor, single point]

**Q.** For `COC(=O)C1=C(C)NC(C)=C(C(=O)OC)C1c1ccc(-c2cc(Cl)ccc2Cl)o1`, which Potency is on record?
**A.** inconclusive [inhibitor, single point]

**Q.** How did the Potency turn out when `COc1ccccc1OCCCCCc1c(C)n[nH]c1C` was run?
**A.** inconclusive [inhibitor, single point]

**Q.** Which Potency does the source give for `CCc1nnc(NC(=O)c2c(OC)cccc2OC)s1` here?
**A.** inconclusive [inhibitor, single point]

**Q.** How did the Potency turn out when `CCCn1c(/C=C/c2ccco2)nc2ccccc21` was run?
**A.** inconclusive [inhibitor, partial curve]

**Q.** `O=C(Nc1ccc2oc(Cc3ccc(Cl)cc3)nc2c1)c1cccnc1` was tested. Which “activity, negative = inhibition” value did it give?
**A.** inactive: -0.14%

**Q.** For `O=C1NN(c2ccccc2)C(=O)/C1=C\c1ccccc1OCC(=O)N1CCOCC1`, which Potency is on record?
**A.** inconclusive [inhibitor, full curve, poor fit]

**Q.** `O=C(Cc1c(F)cccc1Cl)Nc1ccccc1N1CCCCC1` was tested. Which “activity, negative = inhibition” value did it give?
**A.** inactive: 1.3%

**Q.** With `CC(=O)NCCNc1ncnc2ccc(-c3c(C)noc3C)cc12` as the compound, how does the Potency read?
**A.** inconclusive [inhibitor, single point]

**Q.** How did the Potency turn out when `CCOc1ccc(NC(=S)N(CCc2c(C)[nH]c3ccccc23)Cc2cccnc2)cc1` was run?
**A.** inconclusive [inhibitor, single point]

**Q.** `CN1CCN(/C(=N\O)c2nonc2N)CC1` was tested. Which Potency did it give?
**A.** inconclusive [inhibitor, single point]

**Q.** For `CCNC(=S)N1CCN(Cc2ccc3c(c2)OCO3)CC1`, which Potency is on record?
**A.** inconclusive [inhibitor, single point]

**Q.** Which Potency does the source give for `CCCCn1c(CN2CCN(c3ccccc3)CC2)nc2c1c(=O)n(C)c(=O)n2C` here?
**A.** inconclusive [inhibitor, single point]

**Q.** For `S=C(NCc1cccc(Cl)c1)NC1CCCCC1`, which “activity, negative = inhibition” value is on record?
**A.** inactive: -0.529%

**Q.** Which “activity, negative = inhibition” value does the source give for `COC(=O)[C@@]1(Cc2ccc(OC)cc2)[C@H]2c3cc(C(=O)N4CCCC4)n(CCc4ccccn4)c3C[C@H]2CN1C(=O)c1ccccc1` here?
**A.** inactive: -3.87%

**Q.** How did the Potency turn out when `O=C(NNc1nc(-c2ccccc2)cs1)c1ccc(F)cc1` was run?
**A.** inconclusive [inhibitor, single point]

**Q.** With `Cc1cc(Cl)ccc1NC(=S)N1CCN(C(=O)C2CCCO2)CC1` (stereo not drawn) as the compound, how does the “activity, negative = inhibition” value read?
**A.** inactive: 2.71%

**Q.** Which Potency does the source give for `CCN(CC)CCNS(=O)(=O)c1ccc(C(=O)NN)cc1` here?
**A.** inconclusive [inhibitor, single point]

**Q.** `CCOc1cc(/C=C(\C#N)C(N)=O)ccc1OCc1c(C)no[n+]1[O-]` was tested. Which “activity, negative = inhibition” value did it give?
**A.** inactive: 4.39%

**Q.** For `Cc1cccc(CS(=O)(=O)Cc2ccc(C(=O)O)o2)c1`, which Potency is on record?
**A.** inconclusive [inhibitor, single point]

**Q.** `COC(=O)CCN(C(C)=O)c1ccc(N)cc1` was tested. Which “activity, negative = inhibition” value did it give?
**A.** inactive: 14%

**Q.** `O=c1c2[nH]c3ccccc3c2ncn1CCN1CCNCC1` was tested. Which Potency did it give?
**A.** inconclusive [inhibitor, single point]

**Q.** How did the Potency turn out when `O=C1CC(Nc2ccc3ccccc3c2)C(=O)N1Cc1ccccc1` (stereo not drawn) was run?
**A.** inconclusive [inhibitor, single point]

**Q.** How did the Potency turn out when `O=C(COc1cccnc1[N+](=O)[O-])c1c[nH]c2ccccc12` was run?
**A.** inconclusive [inhibitor, single point]

**Q.** How did the Potency turn out when `Cc1ccc(-c2nnc(SCC(C)C)n2C)cc1` was run?
**A.** inconclusive [inhibitor, single point]

**Q.** With `COc1ccc(OC)c(C2(O)CSC(=Nc3cccnc3)N2Cc2ccco2)c1` (stereo not drawn) as the compound, how does the Potency read?
**A.** inconclusive [inhibitor, single point]

**Q.** For `Cc1cc(NCCCO)n2c(nc3ccccc32)c1C#N`, which Potency is on record?
**A.** inconclusive [inhibitor, partial curve]

**Q.** For `CC(=O)c1ccc(NC(=O)CC2Nc3cccc4cccc(c34)NC2=O)cc1` (stereo not drawn), which Potency is on record?
**A.** inconclusive [inhibitor, single point]

**Q.** With `COc1ccc(C2c3ccsc3CCN2C(=O)NC(C)(C)C)cc1` (stereo not drawn) as the compound, how does the “activity, negative = inhibition” value read?
**A.** inactive: -0.954%

**Q.** Which Potency does the source give for `Cc1ccc(N2C(=O)[C@@H]3[C@H](C2=O)[C@H]2C=C(C(=O)c4ccccc4)C=CN2[C@@H]3C(=O)c2ccc(Cl)cc2)cc1` here?
**A.** active: 25.1 µM

**Q.** Which “activity, negative = inhibition” value does the source give for `COc1cccc(CNC(=O)CCC2CCCN(C(=O)c3cc(C)on3)C2)c1` (stereo not drawn) here?
**A.** inactive: 2.45%

**Q.** Which “activity, negative = inhibition” value does the source give for `COCCCNC(=O)CCc1nc(-c2ccccc2)no1` here?
**A.** inactive: -9.89%

**Q.** How did the Potency turn out when `CCC(=O)Oc1ccc(C/C(=N\O)c2ccc(O)cc2O)o1` was run?
**A.** inconclusive [inhibitor, single point]

**Q.** `CC1=CC2(O)OCCN(CCO)C2=CC1=O` (stereo not drawn) was tested. Which “activity, negative = inhibition” value did it give?
**A.** inactive: -2.81%

**Q.** How did the Potency turn out when `Cn1c(SCC(=O)c2ccccc2)nnc1C1CC1` was run?
**A.** inconclusive [inhibitor, partial curve, poor fit]

**Q.** How did the “activity, negative = inhibition” value turn out when `Cc1nc(SCC(=O)Nc2ccccn2)n[nH]1` was run?
**A.** inactive: 2.9%

**Q.** Which “activity, negative = inhibition” value does the source give for `O=C(N/N=C/c1cccnc1)C(O)c1ccccc1` (stereo not drawn) here?
**A.** inactive: 5.08%

**Q.** For `CC(C)Cn1c(-c2csc3ccccc23)n[nH]c1=S`, which Potency is on record?
**A.** inconclusive [inhibitor, partial curve]

**Q.** With `c1ccc(N2CCN(c3cnc4ccccc4n3)CC2)cc1` as the compound, how does the Potency read?
**A.** inconclusive [inhibitor, single point]

**Q.** How did the Potency turn out when `COc1ccc(CC(=O)Nc2nc(-c3ccncc3)cs2)cc1` was run?
**A.** inconclusive [inhibitor, single point]

**Q.** With `N#Cc1c(N)nc2c(c1-c1ccc3c(c1)OCO3)CCc1ccccc1-2` as the compound, how does the Potency read?
**A.** inconclusive [inhibitor, partial curve]

**Q.** Which “activity, negative = inhibition” value does the source give for `CC(=O)Nc1nc(N2C(=O)c3ccccc3C2=O)n(-c2ccccc2)n1` here?
**A.** inactive: -10.6%

**Q.** With `CCCC/C(O)=C/c1nc2ccccc2[nH]c1=O` as the compound, how does the Potency read?
**A.** inconclusive [inhibitor, partial curve]

**Q.** `CCC(C)NC(=O)c1ccc2c(SCC(=O)O)c3c(nc2c1)CCCC3` (stereo not drawn) was tested. Which Potency did it give?
**A.** inconclusive [inhibitor, single point]

**Q.** With `COc1ccc(CNC(=O)c2cnc3cc(C)ccn3c2=O)cc1` as the compound, how does the Potency read?
**A.** inconclusive [inhibitor, single point]

**Q.** Which Potency does the source give for `Cc1nn2c(-c3ccccc3)c(-c3ccccc3)nc2[nH]c1=O` here?
**A.** inconclusive [inhibitor, single point]

**Q.** With `O=C(O)CCn1cc(/C=C/C(=O)c2ccc(Cl)cc2)c(-c2ccc(Br)cc2)n1` as the compound, how does the “activity, negative = inhibition” value read?
**A.** inactive: -4.64%

**Q.** How did the Potency turn out when `COc1cccc(/C=C/C(=O)OCC(=O)NCCc2ccccc2)c1` was run?
**A.** inconclusive [inhibitor, single point]

**Q.** For `CC1CCN(C(c2ccc(N(C)C)cc2)c2nnnn2C(C)(C)C)CC1` (stereo not drawn), which Potency is on record?
**A.** inconclusive [inhibitor, single point]

**Q.** `O=C(CCC1CCCN(C(=O)C2=CCCCC2)C1)N1CCN(c2ccccn2)CC1` (stereo not drawn) was tested. Which Potency did it give?
**A.** inconclusive [inhibitor, partial curve]

**Q.** With `O=C(Cn1nc(C(F)(F)F)c2c1CCCC2)Nc1ccc2c(c1)OCO2` as the compound, how does the “activity, negative = inhibition” value read?
**A.** inactive: 4.86%
